{"source": "PubChem BioAssay AID925", "about": "(National Center for Advancing Translational Sciences (NCATS), 2007)", "note": "Values joined by “and” are separate entries in the source; they are usually repeats but may differ in a detail not shown here. Equal entries are not always repeated. The whole screen tested about 65,000 compounds, of which about 40 (0.06%) were called active. The shares of active, inactive and inconclusive entries below differ from those in the screen. Calls come from the whole dose curve; as a rule, active = well fitted activation curve with a large enough effect; inconclusive = small, poorly fitted or top-dose-only effect; inactive = flat fitted curve, though single readings scatter. No potency is given beside an inconclusive call; the fits are too rough. Potency is the fitted concentration of half-maximal effect.", "data": [{"test": "qHTS Assay for Modulators of Hemoglobin Beta Chain Splicing; for activation: 0% is about no effect", "settings": "HBB splicing reporter cell assay, EGFP reporter with mutant IVS2-654 intron; Potency: activation; activation: at 46.1 µM (top of the series), normalised to 500 nM splice-correcting PNA", "procedure,_shortened": "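HeLa cells stably expressing EGFP interrupted by mutant beta-globin intron 2 (IVS2-654), 500/well in 2% FCS. Treated with compound for 2 days at 37C. Splicing correction scored as total well GFP intensity (488 nm excitation, 500-520 nm emission); 500 nM antisense PNA served as control.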", "values": [{"smiles": "CCCCCCCCCCCCCCCCOC[C@@H](COCC(F)(F)F)OP(=O)(O)OCO", "activation": "inactive: 0.889%"}, {"smiles": "COCCn1c(C)cc(C(=O)COC(=O)c2c(C)nn(Cc3ccccc3)c2C)c1C", "Potency": "inconclusive [activator, single point]"}, {"smiles": "c1ccc(-c2csc3ncn4cnnc4c23)cc1", "activation": "inactive: -1.62%"}, {"smiles": "O=C1CC(=O)N(Cc2ccco2)C(=O)N1", "Potency": "inconclusive [activator, single point]"}, {"smiles": "O=S(=O)(c1ccccc1)N1CCC[C@@]2(CCN(c3cccc(-c4ccccc4)c3)C2)C1", "activation": "inactive: 2.79%"}, {"smiles": "COc1ccc2c(C)cc(SCC#N)nc2c1", "Potency": "inconclusive [activator, single point]"}, {"smiles": "CCNc1ncc2nc(-c3cn(C)c4ccccc34)c(=O)n(Cc3cccs3)c2n1", "Potency": "inconclusive [activator, single point]"}, {"smiles": "Cc1ccnc(NC(=O)Nc2ccc3c(c2)N(C)C(=O)CS3)c1", "Potency": "inconclusive [activator, single point]"}, {"smiles": "Cc1cc(C(F)(F)F)nn1-c1nc(-c2ccco2)cc(C(F)(F)F)n1", "activation": "inconclusive: 12% [activator]"}, {"smiles": "CN1CCC(OC(=O)COc2ccc(C(C)(C)C)cc2)CC1", "activation": "inconclusive: 12.1% [activator]"}, {"smiles": "O=[N+]([O-])c1ccc(C2=Nn3c(nnc3-c3ccc(Cl)cc3)SC2)o1", "activation": "inactive: 3.4% [at 9.22 µM, normalised to 500 nM splice-correcting PNA]"}, {"smiles": "C/C=C(\\CS(=O)(=O)c1ccccc1)S(=O)(=O)c1ccccc1", "activation": "inconclusive: 16.8% [activator]"}, {"smiles": "N#CCc1nc(CSc2nc3ccccc3o2)cs1", "Potency": "inconclusive [activator, full curve, poor fit]"}, {"smiles": "CN1CC=C2C(C#N)=C(N)C(C#N)(C#N)C(c3cccc(Cl)c3Cl)C2C1", "note": "(configuration not stated)", "Potency": "inconclusive [activator, single point]"}, {"smiles": "CC1CCCCN1Cc1nc2c(c(=O)n(C)c(=O)n2C)n1Cc1c(F)cccc1Cl", "note": "(configuration not stated)", "Potency": "inconclusive [activator, single point]"}, {"smiles": "O=C1c2cccc3c(N4CCCCC4)ccc(c23)C(=O)N1c1ccccn1", "Potency": "inconclusive [activator, single point]"}, {"smiles": "C[C@@]1(CO)[C@H](O)CC[C@]2(C)[C@@H]1CC[C@H]1C[C@H]3C[C@]12CC[C@]3(O)COC(=O)CN", "activation": "inactive: 4.74% [at 9.22 µM, normalised to 500 nM splice-correcting PNA]"}, {"smiles": "CCOC(=O)CN1CC23C=CC(O2)C(C(=O)Nc2ccc(OC)cc2OC)C3C1=O", "note": "(configuration not stated)", "activation": "inactive: -0.89%"}, {"smiles": "Nc1ccc2cc3ccccc3cc2c1", "Potency": "inconclusive [activator, full curve]"}, {"smiles": "CCN(CC)c1ccc2cc(-c3nc4ccccc4[nH]3)c(=O)oc2c1", "Potency": "active: 0.794 µM"}, {"smiles": "COc1ccccc1NC(=O)CSc1nnc(CC(=O)Nc2ccccc2)n1C", "activation": "inconclusive: 14.6% [activator]"}, {"smiles": "CC1(C)Cc2ccccc2C2CC(O)C(=O)N21", "note": "(configuration not stated)", "Potency": "inconclusive [activator, single point]"}, {"smiles": "COC(=O)CCCCC(=O)C1C(=O)CC(C)(C)C(C(=O)OC)C1=O", "note": "(configuration not stated)", "activation": "inactive: -0.903%"}, {"smiles": "Cn1c(Cn2nnc3ccccc32)nnc1SCC(=O)NCc1ccc2c(c1)OCO2", "activation": "inactive: -0.177% [at 57.5 µM, normalised to 500 nM splice-correcting PNA]"}, {"smiles": "Oc1c([C@H](Nc2ccccn2)c2ccccc2)ccc2cccnc12", "activation": "inactive: 2.45% [at 9.22 µM, normalised to 500 nM splice-correcting PNA]"}, {"smiles": "Oc1[nH]c2ccccc2c1C=Nc1ccc2c(c1)OCCO2", "activation": "inactive: 9.59%"}, {"smiles": "Cc1csc(NC(=O)c2sc3nc(-c4cccs4)ccc3c2N)n1", "Potency": "active: 15.8 µM"}, {"smiles": "Brc1ccccc1-c1nc(-c2ccccc2)no1", "activation": "inactive: 3.01% [at 0.0738 µM, normalised to 500 nM splice-correcting PNA]"}, {"smiles": "COc1ccc(-c2nc3cnc(Nc4ccccc4)nc3n(CCC#N)c2=O)cc1", "Potency": "inconclusive [activator, partial curve]"}, {"smiles": "N=C1N=C(N)c2cc3ccccc3cc21", "Potency": "inconclusive [activator, single point]"}, {"smiles": "CCN(CC)CCC[C@H](C)Nc1c2ccc(Cl)cc2nc2ccc(OC)cc12", "Potency": "active: 25.1 µM and active: 12.6 µM"}, {"smiles": "CCOC(=O)CSc1nc2cc(C)ccc2cc1C#N", "Potency": "inconclusive [activator, single point]"}, {"smiles": "O=C(CSc1nnnn1-c1cccnc1)NCc1cccs1", "activation": "inconclusive: 15.9% [activator]"}, {"smiles": "CO[C@H]1COC(=O)[C@@H](C)NC(=O)C/C=C\\[C@@H](C)[C@H](OC)COC(=O)C/C=C\\[C@@H]1C", "activation": "inactive: 0.0576% [at 9.22 µM, normalised to 500 nM splice-correcting PNA]"}, {"smiles": "Cc1ccc(N(C(=O)CNC(=O)c2ccco2)C(C(=O)NCC2CCCO2)c2ccccc2)cc1", "note": "(configuration not stated)", "Potency": "inconclusive [activator, full curve, poor fit]"}, {"smiles": "COc1cccc(Nc2ncc3nc(CCc4ccccc4)c(=O)n(Cc4cccs4)c3n2)c1", "activation": "inconclusive: 20% [activator]"}, {"smiles": "CN1CCN(c2ncc3nc(-c4cccs4)c(=O)n(Cc4ccc(F)cc4)c3n2)CC1", "Potency": "inconclusive [activator, partial curve]"}, {"smiles": "Cc1ccc(/C=C/C2=Cc3c(sc(NC(=O)CSc4n[nH]c(N)n4)c3C#N)C(C)(C)C2)o1", "activation": "inconclusive: 12.9% [activator]"}, {"smiles": "CC(=NCCCn1ccnc1)C1=C(O)c2ccccc2C1=O", "Potency": "inconclusive [activator, full curve, poor fit]"}, {"smiles": "CN1CCc2c(sc3c2C(=O)NC(c2ccc(-c4cccc(Cl)c4)o2)N3)C1", "note": "(configuration not stated)", "Potency": "inconclusive [activator, single point]"}, {"smiles": "COc1cc2c3c(c1)/C(=C1/SC(NC(C)=O)=NC1=O)C(=O)N3C(C)(C)C=C2C", "activation": "inactive: -1.65%"}, {"smiles": "COc1ccc(-c2nc3cnc(Nc4cccc(OC)c4)nc3n(CCC#N)c2=O)cc1", "Potency": "inconclusive [activator, single point]"}]}]}
